# Measured values: PubChem BioAssay AID504332 (National Center for Advancing Translational Sciences (NCATS), 2011)
# Among all 350,000 compounds or so, about 31,000 (8.9%) were called active. This list was built around the results that the source calls inconclusive (neither active nor inactive); the mix of calls is not that of the screen. The call rests on the fitted dose curve; in most records, active means well fitted inhibition curve with a large enough effect; inconclusive means small, poorly fitted or top-dose-only effect; inactive means no such curve, though single readings can be large or run the other way. Potencies beside an inconclusive call are fits to weak or partial responses and may not hold up.
# Biological target: Histone-lysine N-methyltransferase EHMT2 (Homo sapiens) (UniProt Q96KQ7)
# Chain of UniProt Q96KQ7 (Q96KQ7 whole entry, looked up): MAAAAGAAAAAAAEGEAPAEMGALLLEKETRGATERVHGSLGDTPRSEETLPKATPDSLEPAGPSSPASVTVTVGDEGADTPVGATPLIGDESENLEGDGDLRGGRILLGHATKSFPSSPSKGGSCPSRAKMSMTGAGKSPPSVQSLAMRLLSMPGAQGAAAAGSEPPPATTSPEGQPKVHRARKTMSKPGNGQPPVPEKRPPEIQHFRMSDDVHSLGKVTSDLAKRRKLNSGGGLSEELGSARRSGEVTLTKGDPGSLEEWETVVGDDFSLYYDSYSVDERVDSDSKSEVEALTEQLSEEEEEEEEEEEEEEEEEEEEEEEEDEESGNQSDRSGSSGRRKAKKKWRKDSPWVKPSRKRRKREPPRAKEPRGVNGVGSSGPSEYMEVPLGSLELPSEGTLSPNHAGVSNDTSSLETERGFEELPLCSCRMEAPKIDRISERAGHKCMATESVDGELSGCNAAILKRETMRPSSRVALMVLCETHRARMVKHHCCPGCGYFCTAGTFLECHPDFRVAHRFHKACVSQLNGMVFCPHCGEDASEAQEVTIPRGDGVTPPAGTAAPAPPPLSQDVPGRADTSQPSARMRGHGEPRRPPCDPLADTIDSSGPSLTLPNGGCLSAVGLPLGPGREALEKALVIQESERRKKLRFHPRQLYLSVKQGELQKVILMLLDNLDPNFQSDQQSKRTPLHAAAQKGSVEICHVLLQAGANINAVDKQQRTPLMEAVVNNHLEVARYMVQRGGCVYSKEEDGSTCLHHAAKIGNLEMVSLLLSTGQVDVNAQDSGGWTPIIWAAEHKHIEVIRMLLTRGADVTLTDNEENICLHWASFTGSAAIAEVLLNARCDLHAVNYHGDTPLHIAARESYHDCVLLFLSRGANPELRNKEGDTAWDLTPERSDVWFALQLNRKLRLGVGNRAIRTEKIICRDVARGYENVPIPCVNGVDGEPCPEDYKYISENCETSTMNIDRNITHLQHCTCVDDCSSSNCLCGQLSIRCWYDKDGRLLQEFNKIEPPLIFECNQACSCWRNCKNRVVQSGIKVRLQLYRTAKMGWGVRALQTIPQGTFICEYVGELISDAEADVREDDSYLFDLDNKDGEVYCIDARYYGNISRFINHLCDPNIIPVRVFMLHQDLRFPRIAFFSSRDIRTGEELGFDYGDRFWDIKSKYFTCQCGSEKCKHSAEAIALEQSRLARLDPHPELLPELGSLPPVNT
# Assay: qHTS Assay for Inhibitors of Histone Lysine Methyltransferase G9a; further: nearly all actives have a fitted effect of over 75% in size
# Details: G9a H3K9 monomethylation, AlphaScreen, 2 h; activity, negative = inhibition: at 59 µM (top of the series) unless noted
# Method in brief: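 Readings reflect AlphaScreen signal from monomethyl-H3K9 antibody detection. HMT at 20 nM; substrate b-H3K9 500 nM; cofactor SAM 20 uM; 2 h RT reaction; compounds tested as titrations in qHTS with 15 min preincubation.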
# On the % scale 0 is the no-effect control and ±100 the full control effect; potency means the concentration at half of the fitted maximal effect; tags describe the fitted curve by direction and shape.
SMILES,Potency,"activity, negative = inhibition"
c1cncc(CNCc2ccco2)c1,"inconclusive: 79.4 µM [inhibitor, partial curve, poor fit]",–
C=CCOc1ccc(C2=NO[C@@H]3[C@@H]4C[C@@H]([C@H]5C(=O)N(C)C(=O)[C@@H]45)[C@H]23)cc1,"inconclusive: 79.4 µM [inhibitor, partial curve, poor fit]",–
COC(=O)c1ccc(NC(=O)c2ccc3nc(C)sc3c2)cc1,"inconclusive: 89.1 µM [inhibitor, partial curve, poor fit]",–
Cc1ccc(-c2cc(N)n(-c3ccccc3)n2)cc1,"inconclusive: 28.2 µM [inhibitor, single point]",–
CN(CCCC(=O)Nc1ccc(Br)cc1F)S(=O)(=O)c1ccccc1,active: 35.5 µM,–
COc1ccc(NCC(=O)N/N=C/C2CCCCC2)cc1,–,inactive: -28.4% [at 102 µM]
Cc1cccc(OCc2nnc(-c3ccc(F)cc3)o2)c1,–,inactive: 5.45% [at 12.7 µM]
Cc1cccc(C(=O)Nc2ccc(N3CCN(C(=O)c4ccco4)CC3)cc2)c1,"inconclusive: 89.1 µM [inhibitor, single point]",–
Cc1cc(NC(=O)CSc2nc3cc(Cl)ccc3o2)no1,–,inactive: -21.2% [at 102 µM]
CCOC(=O)c1ccc(NC(=O)Cn2nc(C)c3nn(-c4ccc(Cl)cc4)c(C)c3c2=O)cc1,–,inactive: -2.05%
C=CCn1c(N2CCCCCC2)nc2c1c(=O)[nH]c(=O)n2C,"inconclusive: 56.2 µM [inhibitor, partial curve, poor fit]",–
CC1CC(C)CN(C(=O)c2cccc3c2-c2ccccc2C3=O)C1 (centres undefined),–,inconclusive: -53.5% [inhibitor]
COc1cccc(CNC(=O)c2ccc3c(c2)sc2nc(-c4cccc(OC)c4)cn23)c1,–,inactive: -1.93%
CN1CCc2c(sc3c2C(=O)NC(c2ccco2)N3)C1 (centres undefined),"inconclusive: 17.8 µM [inhibitor, single point]",–
CCOC(=O)C1=C(N)OC2=C(C(=O)CCC2)C1c1cccs1 (centres undefined),"inconclusive: 70.8 µM [inhibitor, single point]",–
CCOC(=O)/C(=C\C=C1/Sc2ccccc2N1CC)C(C)=O,"inconclusive: 31.6 µM [inhibitor, single point]",–
CC(C)COc1ccc(C(=O)N(CC(=O)Nc2ccccc2C(F)(F)F)Cc2ccco2)cc1,–,inactive: -10.4% [at 2.33 µM]
COc1ccc(-n2c(=O)cnc3cnc(OC)nc32)cc1,–,inactive: 4.05% [at 0.501 µM]
COc1cc(NC(=O)C2CCCCC2)c(OC)cc1NC(=O)c1ccccc1,"inconclusive: 89.1 µM [inhibitor, single point]",–
CCCn1c(C(C)Nc2nc(-c3ccc(OC)cc3)cs2)nc2ccccc21 (centres undefined),"inconclusive: 79.4 µM [inhibitor, partial curve, poor fit]",–
COc1ccccc1CNC(=O)C1CCN(S(=O)(=O)Cc2ccccc2)CC1,"inconclusive: 28.2 µM [inhibitor, partial curve, poor fit]",–
COc1ccc(OC)c(C2=NOC(C(=O)Nc3ccc4c(c3)OCCO4)C2)c1 (centres undefined),–,inactive: 9% [at 102 µM]

SMILES,Potency,"activity, negative = inhibition"
COc1ccccc1CN1CCC2(CC1)CCN(C(=O)c1cc(C(F)(F)F)cc(C(F)(F)F)c1)CC2,–,inactive: 3.58% [at 12.7 µM]
CCN(CC)c1ccc(/C=C(\C#N)c2nc(-c3cccs3)c(NC(C)=O)s2)cc1,active: 10 µM,–
CCOC(=O)N1CCC(N(CCN(C)C)C(=S)Nc2ccc(Oc3ccccc3)cc2)CC1,"inconclusive: 44.7 µM [inhibitor, partial curve]",–
Cc1ccc(NC(=S)NNC(=O)c2ccccc2O)c(C)c1,"inconclusive: 56.2 µM [inhibitor, single point]",–
CCN(CC)S(=O)(=O)c1cccc(C(=O)N2CCCc3ccccc32)c1,"inconclusive: 89.1 µM [inhibitor, partial curve, poor fit]",–
Cc1ccc(C(=O)O)cc1NC(=S)NC(=O)c1ccc([N+](=O)[O-])cc1Cl,"inconclusive: 31.6 µM [inhibitor, single point]",–
O=C(COc1ccc(-c2nnco2)cc1)Nc1c(Cl)cccc1C(F)(F)F,"inconclusive: 89.1 µM [inhibitor, partial curve, poor fit]",–
C/C(CCN1CCc2nc(-c3ccccc3)c(-c3ccccc3)cc2C1)=N\O[C@H](C)c1cn([C@H](CO)Cc2ccccc2)nn1,active: 50.1 µM,–
COc1ccc(/C=C/C(=O)c2cc(Cl)cc(Cl)c2O)c(OC)c1,–,inactive: -3.16% [at 102 µM]
COc1ccc2c(ccc[n+]2CC(=O)c2ccccc2)c1,–,inactive: -4.57% [at 102 µM]
O=C(O)CN1C(=O)CSC1=S,"inconclusive: 44.7 µM [inhibitor, partial curve, poor fit]",–
CCOC(=O)C1(CCOc2ccccc2)CCN(Cc2ccc(C)o2)CC1,"inconclusive: 8.91 µM [inhibitor, partial curve, poor fit]",–
O=C(CNC(=O)c1ccccc1F)NNC(=O)c1ccccc1O,–,inactive: 34.5% [at 102 µM]
Cc1ccc2c(c1)C(c1ccncc1)=NNC(c1ccccc1)=N2,–,inactive: 14.8% [at 102 µM]
Cc1ccc(NC(=O)CCC(=O)N/N=C/c2ccc([N+](=O)[O-])o2)cc1C,"inconclusive: 70.8 µM [inhibitor, partial curve, poor fit]",–
O=C(C(=O)N1CCN(c2ccc(F)cc2)CC1)c1c[nH]c2ccccc12,"inconclusive: 31.6 µM [inhibitor, full curve]",–
CN(c1ccccc1)c1nc(N)c([N+](=O)[O-])c(N2CCCCC2)n1,"inconclusive: 35.5 µM [inhibitor, partial curve]",–
Cc1cc(N2CCOCC2)ccc1/C=C1\SC(=O)N(C(C)C)C1=O,–,inactive: 36.3% [at 12.7 µM]
CCCN1CCCc2cc(CN(CCCN3CCOCC3)C(=O)Nc3ccc(Cl)c(Cl)c3)ccc21,active: 11.2 µM,–
O=C(O)C1CCC(=O)N1C(=O)OCc1ccccc1 (centres undefined),active: 70.8 µM,–
CCC(=O)n1nc(-c2cccnc2)nc1NCc1cccs1,"inconclusive: 50.1 µM [inhibitor, partial curve, poor fit]",–
COC(=O)CN(C(=S)Nc1ccc(F)cc1)C1CC(=O)N(c2ccccc2)C1=O (centres undefined),–,inactive: -12.7%
